# In publication PMC12136788:
# The list shows a part of the results.
# B1: chr15:63775065:63775180:-|CDS|ENSG00000103657|unk|total|mutant (ssRNA)
# RNA: GGGAGUUCUACAGUCCGACGAUCUGGUUCAGCAGAUGUCCAUUCUGUCCGUGAACGCCCCCGGUCAAGCACUGAUGCACUUACCGAAAUGGGUGUUCGAACUGGUCUAAGUUUAUUAUUUGCGCUUCUAAGACAAAGUUGGAUCAACAGAGGAUUGAGCAUCA
# B2: chrX:103676501:103676735:-|CDS|ENSG00000123562|unk|total|mutant (ssRNA)
# RNA: GGGAGUUCUACAGUCCGACGAUCGGAGGUUAAAGUGAAGAUUCCUGAAGAAUUAAAACCAUGGCUUGUUGAGGACUGGGACUCCGUUACCAGGCAGAAGCAGCUGUUUCAACUCCCUGCCAAGAAAAAUGCCGAUGCAAUUCUCAACAGAGGAUUGAGCAUCA
# B3: chr2:171482635:171482736:+|3pUTR|ENSG00000115827|unk|FALSE|unique (ssRNA)
# RNA: GGGAGUUCUACAGUCCGACGAUCCAAGAGUGUUUCAGAAUAGGAUGUCUUAAGACUUCAGUCAUGUCAGAGAUUUUUUUUUUUAGGUGAUUAUUGAGUUUCUCCUUCUCCUUUAAGUCAUCACCUUCCUUUUAUGAAAUGAUACAACAGAGGAUUGAGCAUCA
# B4: chr1:173887777:173887878:+|3pUTR|ENSG00000185278|unk|total|mutant (ssRNA)
# RNA: GGGAGUUCUACAGUCCGACGAUCAAAGAGAUUUGGCAGAGGGACAGGUUGUACCUGCACUGGUGAACCAUCUGUGAGAAUGUCCGUCAUGUGCUCCUUUCCUGAGAUUGCUUUGUGGUAUGUGAAAAGGUGGGCCGAAAAGAACAACAGAGGAUUGAGCAUCA
# B5: chrX:80717640:80717741:-|CDS|ENSG00000165288|msi1|FALSE|unique (ssRNA)
# RNA: GGGAGUUCUACAGUCCGACGAUCCUGAGAAGUCCAAACAUGGACAUAUCUUCUUCCCCAAACAUCAGGCUUCGAAGACAUAGUAGUCAAAUUGAAGGUGUUAGACAAAUGCAUAACAAUGCUCCUCGGAGCCAGAUGGCCACUCAACAGAGGAUUGAGCAUCA
# B6: chr13:52461607:52461862:+|CDS|ENSG00000136108|unk|FALSE|bound_elsewhere (ssRNA)
# RNA: GGGAGUUCUACAGUCCGACGAUCGUUACAAUCCGGAAAGGGCCUCAUGAAAAAGAACUAUUACAAUCAAAAACAGCUUUAUCUAGUGUCAAAACCAGUUCUUCUCAAGGUAUAAUAAGAAAUAAGACUCUAUCAAGAUCCAUACAACAGAGGAUUGAGCAUCA
# Target: MSI1 full-length (mouse, UniProt Q61474 1-362)
# Assay: nsRBNS (natural sequence RNA bind-n-seq); RBNS binding buffer (assumed for nsRBNS): 25 mM Tris pH 7.5, 150 mM KCl, 3 mM MgCl2, 0.01% Triton X-100, 500 ug/ml BSA, 20 U/ml SUPERase-In, 4 C; UNK is unkempt and MSI1 is Musashi-1; names of the RNAs are library labels; protein concentration not given here; high values mean tight binding
# UniProt Q61474, sequence (Q61474 whole entry): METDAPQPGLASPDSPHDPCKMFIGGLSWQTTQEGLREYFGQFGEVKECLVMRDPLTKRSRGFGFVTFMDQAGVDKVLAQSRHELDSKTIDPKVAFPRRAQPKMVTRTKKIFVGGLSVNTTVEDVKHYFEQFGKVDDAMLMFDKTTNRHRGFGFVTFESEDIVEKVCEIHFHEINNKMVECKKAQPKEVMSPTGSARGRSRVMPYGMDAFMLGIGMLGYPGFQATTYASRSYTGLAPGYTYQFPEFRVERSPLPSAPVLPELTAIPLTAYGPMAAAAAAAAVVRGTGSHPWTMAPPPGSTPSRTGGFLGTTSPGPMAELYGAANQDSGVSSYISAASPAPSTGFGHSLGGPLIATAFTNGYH
row,Binder,binding signal
1,B1,0.316 enrichment R
2,B2,0.539 enrichment R
3,B3,0.919 enrichment R
4,B4,0.515 enrichment R
5,B5,1.8 enrichment R
6,B6,10.8 enrichment R
